# The campaign covered roughly 330,000 compounds. About 1,700 (0.52%) were called active. This list was built around the results that the source calls inconclusive (neither active nor inactive); the mix of calls is not that of the screen. Calls follow the shape of the dose curve; as a rule, active = well fitted inhibition curve with a large enough effect; inconclusive = small, poorly fitted or top-dose-only effect; inactive = no such curve, though single readings can be large or run the other way. Where the call is inconclusive, the potency comes from a doubtful curve fit.
# Molecular target: Beta-lactamase (Escherichia coli (strain K12)) (UniProt P00811)
# Chain of UniProt P00811 (P00811 whole entry, looked up): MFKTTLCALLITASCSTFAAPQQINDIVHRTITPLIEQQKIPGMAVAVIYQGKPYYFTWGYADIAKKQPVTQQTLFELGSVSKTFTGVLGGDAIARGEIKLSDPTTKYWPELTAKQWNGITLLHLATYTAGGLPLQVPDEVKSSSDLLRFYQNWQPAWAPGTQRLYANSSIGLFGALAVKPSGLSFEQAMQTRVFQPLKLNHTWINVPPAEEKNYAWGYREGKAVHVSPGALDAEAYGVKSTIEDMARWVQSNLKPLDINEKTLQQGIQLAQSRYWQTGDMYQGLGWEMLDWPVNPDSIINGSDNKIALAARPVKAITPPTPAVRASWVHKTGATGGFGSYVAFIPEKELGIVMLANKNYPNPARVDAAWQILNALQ
# Assay: qHTS Inhibitors of AmpC Beta-Lactamase (assay without detergent); also: nearly all actives have a fitted effect of over 20% in size;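 as to activity change, negative = inhibition: plate controls were no compound for no effect and no enzyme for full effect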
# Settings: AmpC nitrocefin hydrolysis, absorbance 480 nm, 0.0001% Triton; activity change, negative = inhibition: at 57.1 µM (top of the series) unless noted
# Method in brief: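 AmpC (5.3 nM in the dispensed reagent) in 20 mM phosphate pH 7.0 with 0.01% (detergent screen) or 0.0001% Triton X-100 was preincubated with compounds for 15 min at room temperature. Nitrocefin was then added from an 800 uM solution, and hydrolysis was followed at 480 nm.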
# Potency is read from the fitted curve at half-maximal effect; tags tell the direction and shape of the fitted curve.
SMILES,Potency,"activity change, negative = inhibition"
O=C1Nc2ccccc2S/C1=C/NCc1ccccc1Cl,"inconclusive: 31.6 µM [inhibitor, partial curve]",
CCC1Sc2ccc(S(=O)(=O)Nc3ccc(OC)c(OC)c3)cc2NC1=O (centres undefined),"inconclusive: 10 µM [inhibitor, partial curve]",
Cc1sc(NC(=O)CSc2ncn(-c3ccccc3)n2)nc1-c1ccccc1,"inconclusive: 3.55 µM [inhibitor, full curve, poor fit]",
C=CC[C@H](CC(=O)N(CCO)Cc1ccccc1)C(=O)N[C@H](COC(=O)[C@@H](CC=C)Cc1ccc(F)cc1)C(C)(C)C,,inactive: 220%
O=[N+]([O-])c1ccc(-c2nnc(-c3ccccc3)c(NCCCO)n2)cc1,"inconclusive: 15.8 µM [inhibitor, partial curve]",
CCCn1c(NC(=O)c2ccccc2)nc2ccccc21,,inactive: -24.4%
COC(=O)C1=C(C(=O)OC)C2(OC1c1ccccc1C)C(=O)c1ccccc1C2=O (centres undefined),"inconclusive: 31.6 µM [inhibitor, single point]",
COC(=O)C1=C(C)N(Cc2ccc(OC)cc2)C(=O)C1,"inconclusive: 7.08 µM [inhibitor, single point]",
CCn1c(SCC(=O)N2CCCCC2)nc2c(c1=O)SC(C)C2 (centres undefined),"inconclusive: 1.58 µM [inhibitor, full curve, poor fit]",
Cc1cc(C(=O)OCC(=O)N2c3ccccc3CC2C)c(C)o1 (centres undefined),"inconclusive: 0.631 µM [inhibitor, partial curve, poor fit]",
O=C(C1=C(O)C(=O)N(CCN2CCOCC2)C1c1ccc(F)cc1)c1cccs1 (centres undefined),,inactive: -10.4%
CC1=C(C#N)C(=O)NC(=O)/C1=C\c1ccc(-c2cc(C)c(C)cc2[N+](=O)[O-])o1,"inconclusive: 10 µM [inhibitor, partial curve, poor fit]",
CC(C)C(=O)c1cn(CC(=O)N2CCCc3ccccc32)c2ccccc12,,inactive: 8.59%
Cc1cc(C)cc(Oc2nc(C(F)(F)F)nc3ccccc23)c1,"inconclusive: 4.47 µM [inhibitor, single point]",
O=S(=O)(Cc1ccc(Cl)cc1)c1ccccc1-c1nnc(-c2ccccc2)o1,"inconclusive: 6.31 µM [inhibitor, single point]",
COC(=O)[C@H](C)NC(=O)Nc1ccc(S(N)(=O)=O)cc1,,inactive: -6.19%
O=C(CCNc1cc(Cl)cc(Cl)c1)c1cccs1,,inactive: -13.7%
CC(C)c1ccc(NC(=O)COC(=O)CCC(=O)c2cccs2)cc1,,inactive: -2.09%
COc1ccccc1NC(=O)c1cc2ccc(O)cc2o/c1=N\O,"inconclusive: 3.16 µM [inhibitor, single point]",
c1ccc(-c2noc(-c3cccc4ccccc34)n2)nc1,,inactive: -3.92%
Cc1ccc(NC(=O)CN(C)C(=O)CNC(=O)c2ccc3c(c2)OCO3)cc1,"inconclusive: 28.2 µM [inhibitor, single point]",
O=C(CN1CCOCC1)N/N=C/c1cc2ccccc2nc1Cl,"inconclusive: 0.141 µM [inhibitor, full curve, poor fit]",
COc1ccccc1NC(=O)CSc1nc(=O)n(CCN2CCOCC2)c2c1CCC2,"inconclusive: 39.8 µM [inhibitor, single point]",

SMILES,Potency,"activity change, negative = inhibition"
Cc1ccc(-n2c(C)cc(C(=O)CSc3nnnn3C)c2C)cc1,"inconclusive: 8.91 µM [inhibitor, single point]",
CCOc1ccccc1NC(=O)c1nnn(CC(=O)Nc2ccc3c(c2)OCO3)c1N,"inconclusive: 7.94 µM [inhibitor, full curve, poor fit]",
O=c1cc(-c2ccccc2Cl)oc2c(NS(=O)(=O)c3cccs3)ccc(O)c12,"inconclusive: 17.8 µM [inhibitor, partial curve]",
Cc1cc2oc(C(=O)N(Cc3ccco3)C3CCS(=O)(=O)C3)cc(=O)c2cc1Cl (centres undefined),"inconclusive: 6.31 µM [inhibitor, single point]",
Cc1ccc(CNC(=O)C2CN(S(C)(=O)=O)c3cc(Cl)ccc3O2)cc1 (centres undefined),,inactive: 21.5%
COc1ccccc1NC(=O)COc1coc(CN2CCN(c3ccccc3)CC2)cc1=O,,inactive: 87.5%
Cn1c(SCC(=O)NCC2CCCO2)nnc1-c1c[nH]c2ccccc12 (centres undefined),"inconclusive: 63.1 µM [inhibitor, partial curve, poor fit]",
COc1ccc(N2CCN(C(=O)CSc3ncccc3-c3nc4ccccc4[nH]3)CC2)cc1,,inactive: -6.53%
Cc1ccc(C(=O)C(C)OC(=O)c2ccccc2[N+](=O)[O-])cc1 (centres undefined),"inconclusive: 3.55 µM [inhibitor, full curve, poor fit]",
COC(=O)Cn1ncc2c3ccccc3n(C)c2c1=O,,inactive: 0.406%
O=C(CCN1C(=O)/C(=C/C=C/c2ccccc2)SC1=S)Nc1cccnc1,"inconclusive: 7.94 µM [inhibitor, partial curve]",
O=C(CSc1n[nH]c(-c2ccncc2)n1)Nc1ccccc1Cl,"inconclusive: 35.5 µM [inhibitor, single point]",
Cc1ccc(NC2=C(Cl)C(=O)OC2OC(=O)c2ccccc2C)cc1 (centres undefined),active: 3.98 µM,
O=C(NC12CC3CC(CC(C3)C1)C2)N1CCN(c2ccccn2)CC1,"inconclusive: 5.01 µM [inhibitor, single point]",
OCCC1CN(Cc2cccn2-c2ccccn2)CCN1C1CCCCC1 (centres undefined),,inactive: -29.8%
Cc1cc(=O)oc2cc(NC(=S)NNC(=O)c3c(Cl)cnn3C)ccc12,,inactive: -25.6%
FC(F)(F)c1nc2ccccc2nc1N/N=C/c1c(Cl)cccc1Cl,"inconclusive: 3.16 µM [inhibitor, partial curve, poor fit]",
Cc1cc2c(c(=O)o1)C1O[C@](CCCCN3C(=O)c4ccccc4C3=O)(Cc3cc(C#N)ccc31)O2,"inconclusive: 7.94 µM [inhibitor, single point]",
O=C(Nc1nc2ccccc2s1)C1CCN(S(=O)(=O)c2cc([N+](=O)[O-])ccc2Cl)CC1,active: 7.94 µM,
CC(=O)C1=C(C)OC(N)=C(C#N)C1c1cc2cc(C)c(C)cc2nc1Cl (centres undefined),active: 0.316 µM,
COc1ccccc1N1CCN(S(=O)(=O)CCNC(=O)CCCc2ccccc2)CC1,"inconclusive: 39.8 µM [inhibitor, single point]",
COC(=O)c1ccc(-c2nn(C)c(=O)c3ccccc23)cc1,"inconclusive: 100 µM [inhibitor, partial curve, poor fit]",
O=C(Nc1cccc(S(=O)(=O)NC2=NCCC2)c1)c1ccccc1OC(F)F,"inconclusive: 39.8 µM [inhibitor, single point]",

SMILES,Potency,"activity change, negative = inhibition"
CCNc1ccc(C(=O)OCC(=O)N2c3ccccc3NC(=O)C2(C)C)cc1[N+](=O)[O-],"inconclusive: 2.82 µM [inhibitor, single point]",
Cc1ccc2nc(NC(=O)C3CCN(S(=O)(=O)c4cc([N+](=O)[O-])ccc4Cl)CC3)sc2c1,"inconclusive: 3.55 µM [inhibitor, full curve, poor fit]",
COc1cc(/C=C2\SC(=S)N(CC(=O)Nc3ccc(O)cc3)C2=O)cc(OC)c1OC,"inconclusive: 7.94 µM [inhibitor, partial curve]",
Cc1c(NC(=O)C2(c3ccccc3)CCOCC2)c(=O)n(-c2ccccc2)n1C,"inconclusive: 4.47 µM [inhibitor, partial curve, poor fit]",
Cc1cccc(CNc2ncnc3ccc(-c4cccc(C)c4)cc23)c1,"inconclusive: 35.5 µM [inhibitor, single point]",
O=C(c1cnn2c(C(F)(F)F)cc(-c3cccs3)nc12)N1CCN(Cc2ccccc2)CC1,,inactive: 178%
CCCCN(C(=O)COC(=O)CSc1ccc([N+](=O)[O-])cc1)c1c(N)n(CCC)c(=O)[nH]c1=O,"inconclusive: 22.4 µM [inhibitor, single point]",
CCOC(=O)c1sc2ccccc2c1OC(=O)c1ccc(C)cc1,,inactive: -21.8%
C/C(=N\NC(=O)C1CCCN(S(=O)(=O)c2ccccc2)C1)c1cccnc1 (centres undefined),"inconclusive: 0.282 µM [inhibitor, full curve, poor fit]",
CCOC(=O)N1CCC(Nc2ncnc3c2cnn3-c2ccc(C)cc2C)CC1,"inconclusive: 7.94 µM [inhibitor, full curve, poor fit]",
CC1CCc2c(C(=O)NCCCN3CCOCC3)csc2C1 (centres undefined),,inactive: 59.6%
O=C(CC1OC(=O)c2ccccc21)Nc1cccc(S(=O)(=O)N2CCCCCC2)c1 (centres undefined),"inconclusive: 8.91 µM [inhibitor, full curve, poor fit]",
Cc1nn(-c2ccccc2)c(Cl)c1/C=N/NC(=O)c1ccc(NS(=O)(=O)c2cccs2)cc1,"inconclusive: 2.51 µM [inhibitor, single point]",
N#CCC(=O)c1ccccc1Oc1ccc(Cl)cc1,active: 3.98 µM,
COc1cc(OC)c(OC)cc1CN1CCN(Cc2ccc(C(F)(F)F)cc2)CC1,,inactive: 80.5%
CCC(C)Sc1cc(C(F)(F)F)c(C(=O)Nc2ccc(Cl)cc2)cn1 (centres undefined),active: 10 µM,
C=CCn1c(-c2ccccc2)c[nH]c1=S,,inactive: -18%
CSc1ccc(C2N=C(c3ccccc3)NO2)cc1 (centres undefined),"inconclusive: 35.5 µM [inhibitor, single point]",
CC(C)Cc1cc(C(=O)N2CCN(c3ccc(F)cc3)CC2)no1,active: 0.316 µM,
CCc1cccc(C)c1NC(=S)NCc1ccc2[nH]c(C)cc2c1,"inconclusive: 28.2 µM [inhibitor, single point]",
CCCCCOC(=O)Cn1c(=O)oc2ccccc21,,inactive: -3.2%
C=CCOc1ccccc1CNc1cccc(F)c1,,inactive: -29.1%
C#CCOc1ccccc1/C=N/NC(=O)c1ccccc1OCc1ccccc1,active: 20 µM,

# From PubChem BioAssay AID485341 (National Center for Advancing Translational Sciences (NCATS), 2010)
